# Targets with the largest changes are over-represented here; the source holds about 21,000 in all.
# Compound: CC1Cc2ccccc2N1C(=O)C1CCCN(C1)C(=O)CCl (mixture of isomers) [TRIM25 ligand 11 (diastereomer mixture)]
# Experiment: probe-labelled cysteine peptide fold change vs DMSO (competition) (log2 fold change); higher = less target engagement (more negative = stronger competition)
# Conditions: THP-1, incubation time: 4 h
# 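Further: competitive chemoproteomic profiling in live THP-1 cells with an iodoacetamide desthiobiotin (IA-DTB) probe, comparing probe-labelled peptide intensities in compound-treated cells against DMSO-treated controls.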
# UniProt O00506, sequence (O00506 whole entry, looked up): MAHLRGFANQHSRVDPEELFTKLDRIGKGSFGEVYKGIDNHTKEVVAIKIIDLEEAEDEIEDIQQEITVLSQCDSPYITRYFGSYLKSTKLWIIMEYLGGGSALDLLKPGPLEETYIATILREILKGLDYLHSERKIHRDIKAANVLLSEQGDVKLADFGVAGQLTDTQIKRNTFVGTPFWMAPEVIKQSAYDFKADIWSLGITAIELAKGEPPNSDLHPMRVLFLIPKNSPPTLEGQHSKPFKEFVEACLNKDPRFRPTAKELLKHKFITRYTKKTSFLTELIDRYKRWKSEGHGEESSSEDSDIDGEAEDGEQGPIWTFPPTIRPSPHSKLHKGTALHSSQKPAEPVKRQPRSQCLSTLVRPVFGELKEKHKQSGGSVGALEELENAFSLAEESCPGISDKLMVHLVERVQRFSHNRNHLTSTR
# UniProt Q6P1N9, sequence (Q6P1N9 whole entry, looked up): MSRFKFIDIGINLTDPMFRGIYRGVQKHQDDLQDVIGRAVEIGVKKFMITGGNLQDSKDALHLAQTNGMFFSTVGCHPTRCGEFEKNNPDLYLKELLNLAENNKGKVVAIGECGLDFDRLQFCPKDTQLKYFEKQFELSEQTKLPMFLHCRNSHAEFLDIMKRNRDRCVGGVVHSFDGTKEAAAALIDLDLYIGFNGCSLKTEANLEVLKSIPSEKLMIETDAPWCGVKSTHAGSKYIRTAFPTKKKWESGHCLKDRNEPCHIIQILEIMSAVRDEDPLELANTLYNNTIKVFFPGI
# UniProt Q9C0D5, sequence (Q9C0D5 whole entry, looked up): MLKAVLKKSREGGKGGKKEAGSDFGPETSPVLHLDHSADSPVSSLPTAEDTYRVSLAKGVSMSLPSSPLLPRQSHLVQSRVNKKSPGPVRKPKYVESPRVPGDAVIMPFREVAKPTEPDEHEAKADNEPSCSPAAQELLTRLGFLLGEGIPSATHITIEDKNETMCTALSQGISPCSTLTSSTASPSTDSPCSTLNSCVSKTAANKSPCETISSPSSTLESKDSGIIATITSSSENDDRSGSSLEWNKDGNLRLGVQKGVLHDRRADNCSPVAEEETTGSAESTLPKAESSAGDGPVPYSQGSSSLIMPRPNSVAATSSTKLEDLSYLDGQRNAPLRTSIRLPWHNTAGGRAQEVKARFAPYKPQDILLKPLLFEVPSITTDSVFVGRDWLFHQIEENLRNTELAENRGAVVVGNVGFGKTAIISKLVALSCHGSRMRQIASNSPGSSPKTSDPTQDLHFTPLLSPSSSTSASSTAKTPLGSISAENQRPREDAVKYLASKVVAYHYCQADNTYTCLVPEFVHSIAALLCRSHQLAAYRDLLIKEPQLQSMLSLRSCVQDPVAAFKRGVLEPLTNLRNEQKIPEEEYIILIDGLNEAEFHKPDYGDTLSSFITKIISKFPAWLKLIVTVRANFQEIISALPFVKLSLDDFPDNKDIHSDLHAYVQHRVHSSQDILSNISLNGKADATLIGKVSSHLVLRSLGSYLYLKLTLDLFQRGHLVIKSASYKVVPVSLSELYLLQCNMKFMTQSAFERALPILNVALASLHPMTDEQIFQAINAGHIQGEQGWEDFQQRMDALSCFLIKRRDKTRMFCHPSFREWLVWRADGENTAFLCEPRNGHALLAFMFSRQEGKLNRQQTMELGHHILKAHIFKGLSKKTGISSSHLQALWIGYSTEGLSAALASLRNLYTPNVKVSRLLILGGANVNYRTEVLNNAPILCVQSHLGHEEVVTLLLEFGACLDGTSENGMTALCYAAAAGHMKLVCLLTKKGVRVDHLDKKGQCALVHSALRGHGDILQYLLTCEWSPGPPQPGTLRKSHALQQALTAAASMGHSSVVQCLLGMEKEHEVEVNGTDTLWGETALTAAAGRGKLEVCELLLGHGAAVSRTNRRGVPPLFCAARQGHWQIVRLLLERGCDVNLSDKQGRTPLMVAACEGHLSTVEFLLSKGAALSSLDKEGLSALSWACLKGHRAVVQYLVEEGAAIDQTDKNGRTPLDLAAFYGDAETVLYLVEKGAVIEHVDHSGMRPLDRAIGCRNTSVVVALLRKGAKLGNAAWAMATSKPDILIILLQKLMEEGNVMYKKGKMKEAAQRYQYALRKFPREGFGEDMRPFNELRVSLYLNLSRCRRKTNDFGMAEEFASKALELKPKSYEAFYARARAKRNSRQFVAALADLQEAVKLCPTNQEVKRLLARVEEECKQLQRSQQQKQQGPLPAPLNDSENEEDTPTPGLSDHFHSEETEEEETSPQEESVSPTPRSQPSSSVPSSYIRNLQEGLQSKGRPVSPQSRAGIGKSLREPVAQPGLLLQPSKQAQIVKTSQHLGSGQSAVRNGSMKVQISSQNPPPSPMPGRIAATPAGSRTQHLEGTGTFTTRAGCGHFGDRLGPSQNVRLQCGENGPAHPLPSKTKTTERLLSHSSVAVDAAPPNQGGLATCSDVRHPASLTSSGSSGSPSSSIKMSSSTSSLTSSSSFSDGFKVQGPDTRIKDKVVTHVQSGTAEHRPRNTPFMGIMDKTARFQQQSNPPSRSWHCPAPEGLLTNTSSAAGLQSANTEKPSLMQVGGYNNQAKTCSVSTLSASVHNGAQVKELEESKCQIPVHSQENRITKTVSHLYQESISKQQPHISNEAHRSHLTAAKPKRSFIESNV
# UniProt Q9BRZ2, sequence (Q9BRZ2 whole entry, looked up): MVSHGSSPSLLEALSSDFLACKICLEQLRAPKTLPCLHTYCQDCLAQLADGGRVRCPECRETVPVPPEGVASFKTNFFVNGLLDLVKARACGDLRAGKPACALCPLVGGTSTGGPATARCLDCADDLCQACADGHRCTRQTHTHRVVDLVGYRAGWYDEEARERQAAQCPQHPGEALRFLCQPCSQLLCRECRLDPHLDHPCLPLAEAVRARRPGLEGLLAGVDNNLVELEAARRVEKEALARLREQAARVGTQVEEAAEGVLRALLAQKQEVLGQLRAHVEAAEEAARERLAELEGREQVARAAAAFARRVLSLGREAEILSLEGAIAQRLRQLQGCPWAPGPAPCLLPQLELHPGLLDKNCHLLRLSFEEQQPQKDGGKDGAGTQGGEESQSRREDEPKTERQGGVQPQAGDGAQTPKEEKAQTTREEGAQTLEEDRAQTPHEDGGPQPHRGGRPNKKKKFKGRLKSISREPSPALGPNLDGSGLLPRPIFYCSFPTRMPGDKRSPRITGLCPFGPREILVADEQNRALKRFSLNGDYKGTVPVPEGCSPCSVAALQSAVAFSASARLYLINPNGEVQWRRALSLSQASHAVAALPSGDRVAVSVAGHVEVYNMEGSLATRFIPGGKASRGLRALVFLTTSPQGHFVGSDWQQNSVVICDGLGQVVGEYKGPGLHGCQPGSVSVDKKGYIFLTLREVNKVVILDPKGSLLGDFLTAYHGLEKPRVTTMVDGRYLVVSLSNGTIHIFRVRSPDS
# UniProt O94804, sequence (O94804 whole entry, looked up): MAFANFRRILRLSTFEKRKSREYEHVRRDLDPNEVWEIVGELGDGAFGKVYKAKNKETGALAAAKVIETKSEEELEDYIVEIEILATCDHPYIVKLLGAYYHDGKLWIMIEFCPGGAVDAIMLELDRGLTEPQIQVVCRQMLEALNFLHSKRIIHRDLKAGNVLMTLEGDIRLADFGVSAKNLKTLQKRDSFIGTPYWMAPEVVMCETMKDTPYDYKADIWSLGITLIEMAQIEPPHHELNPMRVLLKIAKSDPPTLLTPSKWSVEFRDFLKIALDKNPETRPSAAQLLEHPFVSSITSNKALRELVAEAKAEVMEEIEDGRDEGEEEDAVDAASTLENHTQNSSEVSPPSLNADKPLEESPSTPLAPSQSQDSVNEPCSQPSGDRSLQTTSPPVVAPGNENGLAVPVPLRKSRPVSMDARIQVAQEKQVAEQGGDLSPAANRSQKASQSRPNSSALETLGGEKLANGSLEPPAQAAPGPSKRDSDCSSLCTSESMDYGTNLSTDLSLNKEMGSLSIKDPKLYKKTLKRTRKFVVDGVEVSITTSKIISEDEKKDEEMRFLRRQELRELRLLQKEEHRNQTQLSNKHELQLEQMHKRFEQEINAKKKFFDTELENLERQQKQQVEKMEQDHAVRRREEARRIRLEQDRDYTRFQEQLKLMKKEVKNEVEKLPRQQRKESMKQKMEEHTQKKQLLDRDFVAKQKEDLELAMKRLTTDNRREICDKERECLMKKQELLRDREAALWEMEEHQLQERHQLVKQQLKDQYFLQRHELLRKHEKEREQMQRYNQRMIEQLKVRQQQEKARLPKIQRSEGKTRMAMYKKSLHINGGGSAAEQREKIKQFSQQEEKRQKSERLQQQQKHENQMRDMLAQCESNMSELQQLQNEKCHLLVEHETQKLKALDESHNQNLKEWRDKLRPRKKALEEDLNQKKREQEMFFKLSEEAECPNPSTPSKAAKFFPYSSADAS
# UniProt O60858, sequence (O60858 whole entry, looked up): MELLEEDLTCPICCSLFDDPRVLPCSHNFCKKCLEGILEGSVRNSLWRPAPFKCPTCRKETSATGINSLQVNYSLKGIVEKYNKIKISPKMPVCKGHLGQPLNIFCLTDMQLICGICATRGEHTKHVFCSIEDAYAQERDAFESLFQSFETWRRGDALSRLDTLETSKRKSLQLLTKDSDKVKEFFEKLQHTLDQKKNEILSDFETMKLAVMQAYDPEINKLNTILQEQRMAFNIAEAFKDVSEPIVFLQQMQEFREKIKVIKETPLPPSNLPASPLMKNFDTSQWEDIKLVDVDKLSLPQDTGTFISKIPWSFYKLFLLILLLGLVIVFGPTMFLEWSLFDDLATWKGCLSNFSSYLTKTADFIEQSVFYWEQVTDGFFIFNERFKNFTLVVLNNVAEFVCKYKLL
# UniProt Q9Y5J6, sequence (Q9Y5J6 whole entry, looked up): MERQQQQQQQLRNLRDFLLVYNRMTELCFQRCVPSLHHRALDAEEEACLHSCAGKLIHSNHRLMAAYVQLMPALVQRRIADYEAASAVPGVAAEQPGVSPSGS
Target,probe-labelled cysteine peptide fold change (10 µM),probe-labelled cysteine peptide fold change (50 µM)
TDRD7_Q8NHU6_72_SGEITCYAMACTETAR (UniProt Q8NHU6),-0.0928,0.00492
STAM2_O75886_76_VPHVALQALTLLGACVANCGK (UniProt O75886),-0.414,0.0225
STK25_O00506_357_SQCLSTLVRPVFGELK (UniProt O00506),0.0231,0.0985
STK10_O94804_138_GLTEPQIQVVCR (UniProt O94804),0.0814,0.136
TADA2B_Q86TJ2_359_VLCSSLNLSPAR (UniProt Q86TJ2),-0.00316,0.0232
TANC1_Q9C0D5_1808_CQIPVHSQENR (UniProt Q9C0D5),0.584,-0.28
TRIM56_Q9BRZ2_21_VSHGSSPSLLEALSSDFLACK (UniProt Q9BRZ2),0.674,-0.0675
THBS1_P07996_406_SCDSLNNR (UniProt P07996),0.599,0.541
TATDN1_Q6P1N9_76_DALHLAQTNGMFFSTVGCHPTR (UniProt Q6P1N9),0.109,0.0725
TIMM10B_Q9Y5J6_52_ALDAEEEACLHSCAGK (UniProt Q9Y5J6),0.0215,0.149
TRIM13_O60858_129_HVFCSIEDAYAQER (UniProt O60858),0.57,-0.0504

# From the supplement of paper PMC12067093, “Discovery and optimisation of a covalent ligand for TRIM25 and its application to targeted protein ubiquitination” (Chemical Science, 2025)
